# Measured values reported in article PMC4336329 (PLoS ONE, 2015).
# The whole screen tested about 310,000 compounds, of which about 2,200 (0.71%) showed an effect of 50% or more. The effect is printed as a negative number. This is one part of the list.
# Target: human ether-à-go-go-related gene (hERG) potassium channel (human, UniProt Q12809)
# Test: primary screen, population patch clamp on CHO cells stably expressing hERG
# Chain of human ether-à-go-go-related gene (hERG) potassium channel (Q12809 whole entry, looked up): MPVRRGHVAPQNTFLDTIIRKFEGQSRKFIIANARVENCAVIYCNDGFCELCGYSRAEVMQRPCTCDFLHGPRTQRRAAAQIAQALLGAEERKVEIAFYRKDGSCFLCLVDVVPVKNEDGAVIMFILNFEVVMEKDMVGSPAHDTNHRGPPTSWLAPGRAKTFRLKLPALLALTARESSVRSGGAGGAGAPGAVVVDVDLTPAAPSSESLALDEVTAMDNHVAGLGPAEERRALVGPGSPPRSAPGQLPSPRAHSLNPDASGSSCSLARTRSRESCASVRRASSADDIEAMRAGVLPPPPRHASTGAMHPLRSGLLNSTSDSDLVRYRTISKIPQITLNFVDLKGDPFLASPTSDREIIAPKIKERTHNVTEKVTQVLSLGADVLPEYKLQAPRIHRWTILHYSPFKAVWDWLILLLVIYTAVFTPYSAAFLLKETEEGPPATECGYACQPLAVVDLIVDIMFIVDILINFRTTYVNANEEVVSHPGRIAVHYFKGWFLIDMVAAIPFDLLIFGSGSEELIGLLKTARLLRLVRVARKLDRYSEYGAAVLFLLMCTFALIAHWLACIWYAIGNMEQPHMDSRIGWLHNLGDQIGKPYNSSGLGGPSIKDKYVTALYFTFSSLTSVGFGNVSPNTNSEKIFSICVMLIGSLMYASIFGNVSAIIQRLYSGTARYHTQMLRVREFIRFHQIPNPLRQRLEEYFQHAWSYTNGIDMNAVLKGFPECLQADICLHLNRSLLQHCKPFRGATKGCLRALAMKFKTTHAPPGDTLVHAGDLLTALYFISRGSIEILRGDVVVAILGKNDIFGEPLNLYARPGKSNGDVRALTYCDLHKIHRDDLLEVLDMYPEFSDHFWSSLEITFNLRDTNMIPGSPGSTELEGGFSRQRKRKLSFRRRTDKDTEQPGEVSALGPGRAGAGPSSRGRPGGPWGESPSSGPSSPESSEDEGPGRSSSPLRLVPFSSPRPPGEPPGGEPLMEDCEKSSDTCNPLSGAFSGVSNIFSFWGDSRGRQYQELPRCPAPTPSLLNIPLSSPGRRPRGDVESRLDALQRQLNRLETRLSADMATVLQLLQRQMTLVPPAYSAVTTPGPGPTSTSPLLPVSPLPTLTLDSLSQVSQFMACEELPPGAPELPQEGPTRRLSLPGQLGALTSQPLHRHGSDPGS
row,SMILES,"hERG current change (%, negative = inhibition) at 1uM"
1,CSc1ccc(C(=O)c2[nH]c(=O)[nH]c2C)cc1,7.87%
2,COc1ccccc1OCC(=O)Nc1cc(C)ccc1NC(=O)c1ccco1,9.76%
3,CN1CCN(C(=O)Cn2c(=O)oc3cc(S(=O)(=O)NCc4ccccc4)ccc32)CC1,8.23%
4,Cc1c(C(=O)Nc2ccc(Nc3ccccc3)cc2)cccc1[N+](=O)[O-],11.8%
5,CCn1c(=O)[nH]c2ccccc2c1=O,21%
6,CCC(CC)COC(=O)C1=C(C)NC(=O)NC1c1ccc2c(c1)OCO2 (centres unmarked),5.82%
7,COc1ccccc1OCC(=O)NCC(c1cccs1)N1CCOCC1 (centres unmarked),2.95%
8,CCOc1ccc(S(=O)(=O)Nc2ccncc2)c(C)c1C,6.12%
9,O=C(COC(=O)CNC(=O)c1ccc(Cl)cc1Cl)NCC1CCCO1 (centres unmarked),7.97%
10,CCOC(=O)c1cnc2c(cnn2C)c1NCCC#N,-0.612%
11,CCOC(=O)N1CCC(N2CCCC(C(=O)c3cc(F)ccc3OC)C2)CC1 (centres unmarked),-52.2%
12,CCC(OC(=O)C1=Cc2ccccc2OC1)C(=O)NCc1ccco1 (centres unmarked),15.1%
13,COc1ccc(-c2oc(NC(=O)CSc3ncn[nH]3)c(C#N)c2-c2ccc(OC)cc2)cc1,20.9%
14,CCn1c(COc2cccc(OC)c2)nnc1SCC(=O)NCC1CCCO1 (centres unmarked),13.1%
15,O=C(O)c1ccccc1C(=O)NCc1c(Cl)cccc1Sc1ccc(Cl)cc1,12.9%
16,O=C(NCc1ccccc1CN1CCCCC1)c1ccc(Cl)cc1N1CCCC1=O,1.43%
17,Cc1ccc2nc(SCC(=O)Nc3ccccc3N3CCOCC3)c(C#N)cc2c1,3.99%
18,COc1ccc(OC)c(C(=O)CSc2nnnn2C)c1,2.45%
19,Clc1ccccc1OCc1nnc2n1CCCCC2,-2.53%
20,S=c1[nH]nc(C2CCCCC2)n1/N=C/C(Cl)=C\c1ccccc1,6.87%
21,CNC(=O)c1[nH]cnc1C(=O)N[C@@H](Cc1ccccc1)C(=O)OC(C)(C)C,7.83%
22,O=C(NCc1ccco1)C1CCCN1C(=O)Nc1ccc(Cl)cc1 (centres unmarked),14.7%
23,COc1ccc2c(c1)SCC(=O)N2C,-1.11%

row,SMILES,"hERG current change (%, negative = inhibition) at 1uM"
1,CN(C)CCn1c2c(c(SCC(=O)Nc3ccccc3)nc1=O)CCCC2,-0.74%
2,Cc1ccc(/C=C2\C(=O)NC(=O)N(CC3CCCO3)C2=O)s1 (centres unmarked),9.43%
3,COc1ccccc1NC(=O)CCN1CC(C)OC(C)C1.Cl (centres unmarked),14.8%
4,CCc1cc(=O)[nH]c(SCC(=O)NCC2CCCO2)n1 (centres unmarked),6.78%
5,COc1ccc(-n2nc(C(=O)NCC(=O)Nc3cc(OC)c(OC)c(OC)c3)c3ccccc3c2=O)cc1OC,13.2%
6,Cc1ccccc1C(=O)NCC(=O)NNC(=O)CCN1CCN(c2ccccc2)CC1,16.4%
7,COc1ccccc1N1CCN(CC(=O)Nc2ccc3c(c2)OCCO3)CC1,-0.304%
8,CC(=O)c1cccc(OCC(=O)Nc2ccccc2N2CCOCC2)c1,1.46%
9,CCN(CC)C(=O)c1ccccc1NC(=O)CN1C(=O)c2ccccc2C1=O,9.88%
10,Cc1cc(C)nc(SCC(=O)N(C)CC(=O)Nc2c(Cl)cccc2Cl)n1,7.52%
11,O=C(c1cc(-c2ccc(O)cc2)on1)N1CCN(c2ccccc2)CC1,15%
12,COc1ccc(C2/C=C\CN(Cc3ccc(N(C)C)cc3)CC(=O)N2Cc2ccc(F)cc2)cc1 (centres unmarked),5.68%
13,CN1CCN(Cc2ccc(-c3ccc(Cl)cc3)o2)CC1,-0.985%
14,COc1ccccc1C(=O)NNC1=C(C(=O)C(F)(F)F)CCC1,4.92%
15,Cc1ccc(S(C)=O)cc1-n1c(=O)n(Cc2ccccc2)c(=O)c2[nH]cnc21 (centres unmarked),16.4%
16,C=CC[C@H]1CC(C)=C[C@H](CC=C)[NH2+]1.[Cl-],12.3%
17,CC(=O)Nc1ccc(OC(=O)c2c(-c3ccccc3Cl)noc2C)cc1,7.45%
18,CC1CCCCN1CCNC(=O)c1cc2c(-c3ccccc3F)nn(C)c2s1 (centres unmarked),-24%
19,COCCNc1nc(-c2ccccc2)nc2ccccc12.Cl,11.2%
20,CCCC(C(=O)NCC1CCCO1)N(Cc1ccco1)C(=O)CNS(=O)(=O)c1ccccc1 (centres unmarked),15%
21,COCCCN1CC(=O)N2C(c3ccc(OC)c(OC)c3)c3[nH]c4ccccc4c3C[C@H]2C1=O (some centres unmarked),9.53%
22,CCOC(=O)C1CCN(S(=O)(=O)c2cc(Br)cc3c2N(C(=O)C2CC2)CC3)CC1,6.18%
23,Cc1ccccc1NC(=S)NC1CCCC1,17.3%

row,SMILES,"hERG current change (%, negative = inhibition) at 1uM"
1,N#CC1=C(N)OC2=C(C(=O)CC(c3ccco3)C2)C1c1ccc(OCc2c(F)cccc2Cl)cc1 (centres unmarked),6.87%
2,COc1cc(C)c(CNc2ccc(OC)c(OC)c2)cc1C,11.8%
3,COc1ccc(Cl)cc1NC(=O)C1COc2ccccc2O1 (centres unmarked),12.5%
4,CNS(=O)(=O)c1ccc(C(=O)NCC(=O)NCC2COc3ccccc3O2)cc1 (centres unmarked),6.97%
5,COc1ccc(CN=C(Nc2ccccc2)SC2CC(=O)NC2=O)cc1 (centres unmarked),7.03%
6,N#CCCn1cc(C(=O)Nc2ccccc2Cl)c(-c2ccc(F)cc2)n1,15.4%
7,O=C(CCN1C(=O)c2ccccc2S1(=O)=O)Nc1cccc2ccccc12,0.236%
8,Cc1ccc(C(=O)N2N=C3c4ccccc4S(=O)(=O)N3[C@H]2N(C)C)cc1,9.03%
9,CCCC(CCC)=NNC(=O)c1ccccc1F,13.4%
10,COc1ccc(Cn2nc(C)cc2C)cc1OC,-0.445%
11,O=c1c2ccccc2nnn1CSc1nnc(C2COc3ccccc3O2)n1-c1ccccc1 (centres unmarked),11.6%
12,COc1cc2c(cc1OC)CN(C(=O)c1ccc([N+](=O)[O-])o1)CC2,-8.49%
13,Cc1ccc(Sc2cnc(N)nc2C)cc1,6.07%
14,Cc1c(NC(=O)CSc2nnnn2-c2ccc(O)cc2)c(=O)n(-c2ccccc2)n1C,-1.4%
15,Cc1nn(Cc2ccccc2)c(C)c1NC(=O)c1ccc([N+](=O)[O-])cc1[N+](=O)[O-],-9.88%
16,COc1ccc(-c2sc(Nc3ccccc3)n[n+]2-c2ccc(F)cc2)c(OC)c1OC.[Cl-],-42.1%
17,COc1ccc(Nc2nnc(-c3ccc(O)cc3)c3ccccc23)cc1C(N)=O,9.02%
18,CC1CCN(c2nc(-c3ccncc3)nc3ccccc23)CC1,7.53%
19,Cc1cc(S(=O)(=O)NCc2ccccc2)ccc1OCC(=O)N1CCCC1,7.22%
20,O=C1C(=O)N(CCCN2CCOCC2)C(c2ccc(F)cc2)/C1=C(/O)c1ccccc1 (centres unmarked),17.9%
21,CC(=O)c1ccc(N2CCN(C(=O)C3CCCN(S(=O)(=O)c4cnc[nH]4)C3)CC2)cc1 (centres unmarked),8.85%
22,O=C1c2ccccc2C(=O)N1Nc1ccc([N+](=O)[O-])cc1[N+](=O)[O-],14.6%
23,NC1=NC(=Nc2cccc(S(=O)(=O)N3CCOCC3)c2)c2ccccc21,-0.889%

row,SMILES,"hERG current change (%, negative = inhibition) at 1uM"
1,CCOc1ccc(-c2cc(CCCC(=O)Nc3cccc(OC)c3)no2)cc1,15.5%
2,Cc1ccc(C(=O)c2cc3c(cc2[N+](=O)[O-])OCCO3)cc1,3.98%
3,c1cc2[nH]snc2c2nc(C3CC3)nc12,-1.81%
4,CC(=O)c1ccc(NCC(=O)N2CCN(S(=O)(=O)c3ccccc3)CC2)cc1,7.78%
5,Cc1csc(NC(=O)Cc2ccccc2[N+](=O)[O-])n1,10.5%
6,CCn1c(SCC(=O)Nc2nnc(C)s2)nnc1C(C)NC(=O)c1ccccc1 (centres unmarked),14.7%
7,C/C(=N/NC(=O)c1ccco1)c1ccc(Br)s1,8.71%
8,COC(=O)C(C)NC(=O)C12CC3CC(CC(C3)C1)C2 (centres unmarked),12%
9,CC1=C/C(=N\OS(=O)(=O)c2ccccc2)C(C)=CC1=O,11%
10,COC(=O)c1c(C)oc(C)c1S(=O)(=O)N1CCCC1,10.8%
11,CCc1ccccc1NC(=O)Nc1cccn(Cc2ccc(F)cc2)c1=O,13.2%
12,Nc1nonc1C(=O)N/N=C/c1cccc([N+](=O)[O-])c1,-6.3%
13,CCc1ccc(Nc2ncc3c(n2)CC(c2ccco2)CC3=O)cc1 (centres unmarked),5.43%
14,Cc1cc(C)cc(N(CC(=O)Nc2ccc(-c3nc4ccc(C)cc4s3)cc2)S(C)(=O)=O)c1,5.59%
15,Cc1cc(C)c2cc(C=O)c(Cl)nc2c1,9.63%
16,CCc1ccc2c(c1)C(c1ccc(N3CCOCC3)cc1)=NNC(c1ccncc1)=N2,-1.9%
17,CCc1ccc(NC(=O)CC2C(=O)NCCN2C(=O)c2ccc(F)cc2)cc1 (centres unmarked),-7.06%
18,CNc1ccc(Br)cc(C(=O)/C=C/c2ccc(OC)cc2)c1=O,4.02%
19,CC1=CC(C)C(C(=O)O)C(C(=O)Nc2cccnc2)C1 (centres unmarked),15.9%
20,CN(c1ccccc1)c1nc(N)c([N+](=O)[O-])c(NCCO)n1,14.5%
